Test results from the BET-seq Pho4 binding data (Le et al. 2018).
The list shows a part of the results. These are noisy estimates, calculated here from bound and input reads.

molecular target: T1, Pho4 (S. cerevisiae) (UniProt P07270); test: relative binding free energy (BET-seq); higher = weaker binding; conditions: reference: library average
T1 sequence: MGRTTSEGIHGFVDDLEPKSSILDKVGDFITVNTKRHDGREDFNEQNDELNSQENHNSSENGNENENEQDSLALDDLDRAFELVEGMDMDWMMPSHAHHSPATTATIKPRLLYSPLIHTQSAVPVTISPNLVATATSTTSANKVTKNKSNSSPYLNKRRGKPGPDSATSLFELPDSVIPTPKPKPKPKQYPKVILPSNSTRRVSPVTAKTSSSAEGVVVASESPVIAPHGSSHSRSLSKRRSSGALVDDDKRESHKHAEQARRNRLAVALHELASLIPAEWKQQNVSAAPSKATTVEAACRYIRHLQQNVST

| Sequence | relative binding free energy |
| --- | --- |
| GAGTGCACGTGGTTAT | 0 kcal/mol |
| GATGTCACGTGGGTTC | 0.04 kcal/mol |
| TTTTCCACGTGTAAGT | 0.13 kcal/mol |
| GTCAGCACGTGATGGA | 0.14 kcal/mol |
| ATTGGCACGTGTTTTC | -0.18 kcal/mol |
| TTATGCACGTGGGCGA | -0.17 kcal/mol |
| TCTTTCACGTGTTTAA | 0.32 kcal/mol |
| GGTATCACGTGAGTCA | 0.4 kcal/mol |
| GGCTTCACGTGGGTCT | 0.3 kcal/mol |
| GGGCGCACGTGAAGTT | 0.18 kcal/mol |
| TGGGCCACGTGGAAGT | 0.02 kcal/mol |
| TAGTGCACGTGTATTT | -0.02 kcal/mol |
| AATGACACGTGCGTGG | -0.01 kcal/mol |
| CGCGGCACGTGGGGCG | -0.18 kcal/mol |
| AGGGACACGTGCGTAG | -0.01 kcal/mol |
| CATTACACGTGTTGTT | 0.09 kcal/mol |
| GGGTGCACGTGGTACC | 0 kcal/mol |
| AAGAGCACGTGGGGAT | -0.18 kcal/mol |
| TAGATCACGTGGGGCT | 0.01 kcal/mol |
| ATGGTCACGTGGGCCT | -0.17 kcal/mol |
| GGCCTCACGTGGTGTT | 0.15 kcal/mol |
| TTTTGCACGTGGTCTA | -0.11 kcal/mol |
| GTAGGCACGTGGAAGT | 0.05 kcal/mol |

| Sequence | relative binding free energy |
| --- | --- |
| TTGCTCACGTGATGTT | 0.28 kcal/mol |
| CTGTTCACGTGTGTTC | 0.17 kcal/mol |
| ATTAGCACGTGGTGTG | -0.14 kcal/mol |
| TATGACACGTGCATGT | 0.02 kcal/mol |
| TTAGTCACGTGATTAT | 0.27 kcal/mol |
| GTGGACACGTGTCGTT | 0.06 kcal/mol |
| TGGGACACGTGAATGA | 0.29 kcal/mol |
| AATGTCACGTGATTCT | 0.17 kcal/mol |
| TGCAGCACGTGAGTGT | 0.08 kcal/mol |
| CCGTGCACGTGAGGGT | 0.12 kcal/mol |
| CATTGCACGTGGATTA | 0.12 kcal/mol |
| ATATTCACGTGTGGAT | 0.09 kcal/mol |
| GGTAGCACGTGTGCAG | 0.1 kcal/mol |
| TATGGCACGTGTAAGT | -0.06 kcal/mol |
| GTGGGCACGTGTAAGA | 0.1 kcal/mol |
| AGGGTCACGTGTCGAA | 0.03 kcal/mol |
| CGAGGCACGTGATATG | -0.07 kcal/mol |
| TCGGTCACGTGTGTTA | 0.12 kcal/mol |
| TAGCGCACGTGTGGTC | -0.09 kcal/mol |
| TTCTTCACGTGATTAG | 0.37 kcal/mol |
| GGTTGCACGTGGTGAA | 0.03 kcal/mol |
| GTTTTCACGTGTATTT | 0.36 kcal/mol |
| ACTAGCACGTGGAGGT | -0.08 kcal/mol |

| Sequence | relative binding free energy |
| --- | --- |
| TCAGCCACGTGGTGTG | -0.18 kcal/mol |
| AGTCTCACGTGGTTTT | 0.19 kcal/mol |
| AGTGTCACGTGGGGGA | -0.07 kcal/mol |
| CGTGTCACGTGGGTAA | -0.02 kcal/mol |
| GTCGTCACGTGATGTA | 0.28 kcal/mol |
| TATGTCACGTGGGCAT | 0.03 kcal/mol |
| GAAAGCACGTGGTTTG | -0.1 kcal/mol |
| CGACGCACGTGGGGGG | -0.24 kcal/mol |
| ATGGGCACGTGTTGGG | -0.06 kcal/mol |
| GGGGCCACGTGTGTAA | -0.07 kcal/mol |
| TTTACCACGTGGTGAG | -0.04 kcal/mol |
| ATTGTCACGTGAAAGG | 0.34 kcal/mol |
| GAGTGCACGTGTGATG | 0.11 kcal/mol |
| TGGTCCACGTGTGAAT | 0.12 kcal/mol |
| AGTGGCACGTGTCCGG | -0.1 kcal/mol |
| GGAGACACGTGCGGGT | 0.11 kcal/mol |
| TGTGACACGTGTGATG | 0.07 kcal/mol |
| TATGGCACGTGTCAGT | -0.07 kcal/mol |
| AATGGCACGTGGGCCG | -0.26 kcal/mol |
| GGTTTCACGTGAACGA | 0.45 kcal/mol |
| ACGGTCACGTGTAAGT | 0.17 kcal/mol |
| TTATGCACGTGTGTGC | -0.01 kcal/mol |
| TTGTTCACGTGGTCGG | 0.28 kcal/mol |

| Sequence | relative binding free energy |
| --- | --- |
| ATTTACACGTGGGGGT | 0.01 kcal/mol |
| GTAAGCACGTGCGGAG | -0.09 kcal/mol |
| GTGTGCACGTGAACTG | 0.17 kcal/mol |
| GGAGGCACGTGACCGG | -0.06 kcal/mol |
| TTAGCCACGTGTGTAT | -0.17 kcal/mol |
| AGGAGCACGTGGGGGA | -0.2 kcal/mol |
| CGTAGCACGTGTAGTG | -0.13 kcal/mol |
| AGAGGCACGTGTTCAG | -0.07 kcal/mol |
| GGGCACACGTGATTGT | 0.19 kcal/mol |
| TAATGCACGTGAATGG | 0.26 kcal/mol |
| CGGCTCACGTGAAGGG | 0.23 kcal/mol |
| GGGTGCACGTGGTACA | -0.18 kcal/mol |
| GAGTGCACGTGAGGGC | 0.32 kcal/mol |
| GCGTTCACGTGTGTTG | 0.3 kcal/mol |
| GAGATCACGTGGTTTG | 0.13 kcal/mol |
| TATCACACGTGAGTTG | 0.28 kcal/mol |
| ATTTGCACGTGGTGTC | -0.03 kcal/mol |
| AAGGGCACGTGTGCCG | -0.13 kcal/mol |
| GGGCTCACGTGGACGG | 0.24 kcal/mol |
| CGCGTCACGTGTTGGA | 0.25 kcal/mol |
| CACTGCACGTGGGGTG | -0.29 kcal/mol |
| ATGAGCACGTGTTATG | -0.04 kcal/mol |
| TTTGGCACGTGTGAAT | 0.05 kcal/mol |

| Sequence | relative binding free energy |
| --- | --- |
| ACGGTCACGTGGAGTG | 0.1 kcal/mol |
| TTTGTCACGTGTCAGT | 0.05 kcal/mol |
| GATTGCACGTGCATTG | 0.16 kcal/mol |
| TGTGTCACGTGAGTTC | 0.38 kcal/mol |
| GGTGTCACGTGGAGAG | 0.14 kcal/mol |
| AGTTACACGTGAAGGA | 0.33 kcal/mol |
| TTAAGCACGTGTGGAT | 0 kcal/mol |
| ATTTACACGTGGAGTG | 0.13 kcal/mol |
| TTGTGCACGTGCGGTC | 0.02 kcal/mol |
| TAGATCACGTGGGTAA | 0.06 kcal/mol |
| ATAATCACGTGTTGGT | 0.13 kcal/mol |
| CGTGTCACGTGTAGAG | -0.07 kcal/mol |
| TGCTTCACGTGGATTA | 0.32 kcal/mol |
| ACAATCACGTGTGGTG | 0.12 kcal/mol |
| GTTGACACGTGGGCAG | -0.12 kcal/mol |
| TGTTGCACGTGAACTT | 0.08 kcal/mol |
| CTTGGCACGTGGCGGG | -0.23 kcal/mol |
| TCTTCCACGTGTGTTG | 0 kcal/mol |
| GTAGTCACGTGTGTCA | 0.1 kcal/mol |
| ATTTCCACGTGTGGTC | 0.24 kcal/mol |
| ATGCGCACGTGGTTAG | -0.23 kcal/mol |
| GGGATCACGTGAGTCG | 0.36 kcal/mol |
| TTATGCACGTGGGAGC | -0.16 kcal/mol |
